Experimental data: PubChem BioAssay (NCI)
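Results reflect a 48-hour exposure of cells in 96-well plates to compound at five concentrations. Abbreviation: GI50, concentration required for 50% inhibition of growth. TGI: total growth inhibition.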

These molecules were tested on NCI-H322M lung (assay: NCI anticancer screen, dose series, 48 h).

Compound	TGI [µM]	GI50 [µM]
CC1=NN(c2nc(N)nc(/C(C#N)=C/c3ccncc3)n2)C(C)(C)C1	> 100	
COc1ccc(Cn2nc(OCc3ccccn3)c3cc([N+](=O)[O-])ccc32)cc1	> 100	
CC(C)(CN1CCCCC1)C(=O)CC(SCCS(=O)(=O)O)c1ccc(Br)cc1 (centres undefined)	9.08	
O=C1NC(=O)/C(=C\c2ccncc2)N1	> 100	
COC(=O)Cc1c(C2=Nc3ccccc3C2(O)CC(=O)OC)[nH]c2ccccc12 (centres undefined)	> 100	
CC1CCC(O)C(C(O)CC2CC(=O)N(C)C(=O)C2)C1 (centres undefined)	> 100	
COc1cc(C(=O)Nc2nnc(S(N)(=O)=O)s2)cc(OC)c1OC	> 100	
C=C(CCOC)CCC1CCCCC(=C)C1=O (centres undefined)	> 100	
COC(=O)C(CC=O)C(=O)C(=O)Nc1cccc(C(F)(F)F)c1 (centres undefined)	> 100	
CCN(CC)c1ccc(C(=C2C=CC(=[N+](CC)CC)C=C2)c2ccc(N(CC)CC)cc2)cc1	1.25	
CC1CN=C(c2cccc(OCc3ccc(COc4cccc(C5=NCC(C)N5)c4)cc3)c2)N1 (centres undefined)	> 100	
Cc1ccc2c(c1)c(=O)c1c(NCCN(C)C)ccc3nnn2c31	8.1	
Cc1ccc(S(=O)(=O)C(C#N)c2nc3ccccc3nc2-n2cccn2)cc1 (centres undefined)	> 100	
Cc1[nH]c(=O)nc(N/N=C/c2ccc(Cl)c(Cl)c2)c1C(=O)Nc1ccc(Cl)c(Cl)c1	> 52.5	
O=S1(=O)NNC(=NCc2ccc(F)cc2)c2ccccc21	> 100	
COc1cc(N=Nc2cccc(S(=O)(=O)O)c2)c(C)cc1N=Nc1ccc(/C=C/c2ccc(N=[N+]([O-])c3ccc(/C=C/c4ccc(N=Nc5cc(C)c(N=Nc6cccc(S(=O)(=O)O)c6)cc5OC)cc4)c(S(=O)(=O)O)c3)cc2S(=O)(=O)O)cc1	> 100	
C/C(=N\NS(=O)(=O)c1ccc(C)cc1)c1ccc[n+]([O-])n1	> 100	
O=C(CCCCCCCCC(=O)OCC1OC(n2cnc3c(=O)[nH]cnc32)C(O)C1O)OCC1OC(n2cnc3c(=O)[nH]cnc32)C(O)C1O (centres undefined)	> 100	
Cc1cc(CS(=O)(=O)/C=C/c2ccccc2[N+](=O)[O-])c(CS(=O)(=O)/C=C/c2ccccc2[N+](=O)[O-])cc1C	> 100	
COc1cc2oc3ccccc3c(=O)c2cc1CSc1ccccc1N	> 87.1	
CC(=O)N[C@@H](Cc1ccc(O)cn1)C(=O)NCc1ccc2c(c1)OCO2	> 100	
O=C1c2cc([N+](=O)[O-])ccc2NC2C(O)c3ccccc3N12 (centres undefined)	> 100	
O=C1OC(c2ccc(O)cc2)(c2ccc(O)cc2)c2cccc3cccc1c23	26.4	12.5
CC(C)OP(=O)(OC(C)C)C(N(C)C)P(=O)(OC(C)C)OC(C)C.[Cl][Sn]([Cl])([Cl])[c]1ccccc1	44.9	3.89

Compound	TGI [µM]	GI50 [µM]
COc1cc(C2C(Cl)C(=O)N2c2ccc(Br)cc2)cc(I)c1O (centres undefined)	> 100	
Nc1ncnc2occ(-c3ccc(NC(=O)Nc4cc(C(F)(F)F)cc(C(F)(F)F)c4)cc3)c12	8.23	3.5
N#Cc1c(=O)c2cccnc2n2c1[nH]c1ccccc12	> 100	
CCOC(=O)CCC1(C(=O)OC)CCCC1=O (centres undefined)	> 100	
C[C@@H](NC(=O)Cc1cc(F)cc(F)c1)C(=O)N[C@@]1(C)N=C(c2ccccc2)c2ccccc2N(C)C1=O	> 100	41.8
CC1(CC(=O)O)OC2CCCCCC2O1 (centres undefined) (tested in a mixture with another compound)	> 100	
CC(C)(C)OC(=O)NC(Cc1ccccc1)C(=O)N[C@H]1c2ccsc2/C(=N/O)[C@H]1O (some centres undefined)	> 100	
C/C(=N\N=C(N)N)c1c(C(=O)OCCCCCCOC(=O)c2nc3sccn3c2/C(C)=N/N=C(N)N)nc2sccn12	> 100	
COc1ccc(C2CC(c3c(C)nn(-c4ccccc4)c3-c3ccc(C)cc3O)=NN2c2ccccc2)cc1 (centres undefined)	> 100	
CCOC(=O)C1C/C(C)=C(/C)SCCCS1 (centres undefined)	> 100	
COc1ccc(/C=N/Nc2[nH]c(=S)nc3[nH]ncc23)cc1	93.1	
O=C(c1ccccc1F)c1c(NCc2ccccc2)c(=O)c1=O	> 100	
CC1=CC2=C(C)C3(CC3)[C@@](C)(O)C(=O)C2=C1	> 1	
COc1ccc(N2C(=O)C3c4[nH]c5ccc(C)cc5c4C4CCC(C(C)C)CC4C3C2=O)cc1 (centres undefined)	> 100	
[N-]=[N+]=NC1(c2ccccc2)C(=O)Nc2ccccc2C1=O (centres undefined)	> 100	
O=C1/C(=C/c2ccccc2S)N=C(c2ccccc2)N1c1ccc2c(c1)Sc1cc(N3C(=O)/C(=C/c4ccccc4S)N=C3c3ccccc3)ccc1N2	32.4	
COc1ccc(C[C@H]2C[C@@H](O)[C@@H](C)C/C=C/Cc3cccc(O)c3C(=O)O2)cn1	93.3	27.3
COC(=O)/C(C#N)=C1\N=NNN1CCCN1CCOCC1	> 100	
O=C1CCSSCCC(=O)Nc2ccccc2N1	> 100	
O=c1[nH]c(=O)n(C2CC(O)C(CO)O2)cc1C#Cc1ccc(C(F)(F)F)cc1 (centres undefined)	> 100	
O=C1c2ccccc2S(=O)(=O)c2ccccc21	> 100	
Oc1cc2cc(-c3ccccc3)[nH]c2c2ccccc12	> 100	
COc1cc(C2C3=C(COC3=O)N(CCO)c3cc4c(cc32)CCC4)cc(OC)c1O (centres undefined)	> 32.5	1.07
c1ccc(SCCCC(Sc2ccccc2)Sc2ccccc2)cc1	> 100	

Compound	TGI [µM]	GI50 [µM]
CCOC(=O)CCC(NC(=O)OCc1ccccc1)C(=O)NNC(=O)OC(C)(C)C (centres undefined)	> 100	
c1ccc2c(c1)nc(NCCN1CCNCC1)c1c3ccccc3[nH]c21	2.59	0.4
COc1cc[nH]c1/C=C1\C(=O)Nc2ccc(F)c(C#CC3(O)CCOCC3)c21	> 7.68	0.791
CCOC(=O)C1C(c2cc(OC)c(O)c(OC)c2)c2cc3c(cc2OC1(C)O)OCO3 (centres undefined)	> 100	
CCOC(=O)/C=C1\Nc2ccccc2C12CCc1c([nH]c3ccccc13)C2C(=O)OCC (centres undefined)	> 100	
Cc1cs/c(=N\C(P(=O)(O)O)P(=O)(O)O)n1C	> 100	
Cc1ccc(NC(=O)CCC(=O)C2CC(=O)CC/C2=N\NC(=O)c2cc3ccccc3cc2O)cc1C (centres undefined)	> 100	
CCOC(=O)c1[nH]c2c(c1C)-c1[nH]c(=O)c(S(=O)(=O)c3ccccc3)cc1SC2	> 100	32.2
COc1cn2c(cc1=O)COc1ccc(-c3ccccc3)cc1-2	> 100	
COc1c(O)c(OC)c(C(=O)/C=C/c2ccccc2)c(O)c1OC	> 100	
COc1cc2c3c(c1OC)-c1ccccc1C(C(OC(C)=O)c1ccccc1)C3N(C)CC2 (centres undefined)	> 100	
CC(C)OP(=O)(CP(=O)(OC(C)C)OC(C)C)OC(C)C.[CH3][Sn]([Br])([Br])[Br]	> 100	> 100
O=C1C=C(Nc2cccc(Br)c2)c2ccccc2C1=O	> 100	4.88
CC[C@@]1(OC(=O)CN)C(=O)OCc2c1cc1n(c2=O)Cc2cc3cc(N)ccc3nc2-1	> 100	0.0434
c1ccc2c3c(ccc2c1)CSCc1ccc2ccccc2c1-3	> 100	
COC(=O)C(C)N1C(=O)c2ccccc2I1OC(C)=O (centres undefined)	> 100	> 100
O=C(Nc1cccc2nsnc12)c1cc2c(cc1Cl)Sc1nccn1S2(=O)=O	6.24	
O=C1C=CC(=O)c2c(O)c(N3CCSCC3)c(Cl)c(O)c21	1.85	
Cc1nn(-c2ccccc2)c2c1C1C(=C(c3ccc(Cl)cc3)N2)C(=O)Nc2ccccc21 (centres undefined)	> 100	3.14
Oc1cccc(-c2nc3ccccc3s2)c1	> 100	
COc1cc(C(c2cc3c(cc2O)OCO3)N2CCCC2)cc(OC)c1OC (centres undefined)	> 100	
COC(=O)c1c(C)oc2ccc(OC(C)=O)cc12	> 100	
